Results published in PubChem BioAssay AID686970 (National Center for Advancing Translational Sciences (NCATS), 2013).
Hit rate of the full screen: of about 360,000 compounds, about 6,000 (1.7%) were called active. This list was built around the results that the source calls inconclusive (neither active nor inactive); the mix of calls is not that of the screen. Calls come from the whole dose curve; as a rule, active = well fitted cell-killing curve with a large enough effect; inconclusive = small, poorly fitted or top-dose-only effect, or effect the other way; inactive = flat fitted curve, though single readings scatter. No potency is given beside an inconclusive call; the fits are too rough.
Potency is the fitted concentration of half-maximal effect; tags give direction and shape of the fitted curve.

Assay: qHTS for induction of synthetic lethality in tumor cells producing 2HG: qHTS for the HT-1080-NT fibrosarcoma cell line;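 note: NT is the 2HG producing partner of a matched IDH1 knockdown line; nearly all actives have a fitted effect of over 55% in size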;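 for activity, negative = less viability: 0% = DMSO-treated cells and -100% = media-only wells without cells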
Conditions: HT-1080-NT fibrosarcoma viability, CellTiter-Glo ATP luminescence, 48 h; activity, negative = less viability: at 46.1 µM (top of the series) unless noted
In short: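 Compounds were tested in concentration-response format on HT-1080-NT cells for 48 hours at 37 degrees C. Cell viability came from CellTiter-Glo luminescence; curves were classified by r2, response magnitude and activity.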
For `CCOc1ccccc1-c1c2cc(O)c(=O)cc-2oc2cc(O)c(O)cc12`, the Potency was inconclusive [cytotoxic, single point].
With `C=CCNc1nc2cc(-c3cccc(Cl)c3)sc2c(=O)n1C` the Potency was inconclusive [cytotoxic, single point].
In the case of `COc1cc(C(=O)Sc2ccc(Cl)cc2)cc(OC)c1OC`, the Potency is reported as inconclusive [cytotoxic, single point].
In the case of `Nc1nc(NCCCN2CCOCC2)nc(Nc2cccc(F)c2)c1[N+](=O)[O-]`, the Potency is reported as inconclusive [cytotoxic, single point].
For `Nc1ncc(Br)cc1S(=O)(=O)NCCC(=O)Nc1cccc(Cl)c1`, the Potency was inconclusive [cytotoxic, single point].
For `Cc1ccc2nc(C(C)(C)C)c(Cc3ccccc3C(F)(F)F)n2c1`, the Potency was inconclusive [cytotoxic, single point].
With `CCN1CCN(CCCOc2ccc(Cl)cc2Br)CC1` the Potency was inconclusive [cytotoxic, single point].
With `CC(=O)CSc1nc(N)c(C#N)c(-c2cccs2)c1C#N` the “activity, negative = less viability” value was inactive: -24%.
In the case of `O=C1N[C@@H](c2ccccc2)COC(=O)[C@@H](Cc2ccc(F)cc2)CC/C=C/C[C@@H]1CC(=O)N(CCO)Cc1ccccc1`, the Potency is reported as inconclusive [cytotoxic, single point].
In the case of `Cc1ccccc1Cn1ccc(NC(=O)c2cnn3c2NC(c2ccccc2)CC3C(F)(F)F)n1` (configuration not stated), the Potency is reported as inconclusive [cytotoxic, single point].
For `COc1ccc(-c2noc(CCC(=O)N3CCN(c4ccccc4F)CC3)n2)cc1`, the “activity, negative = less viability” value was inactive: -0.895%.
For `CCN(CC)CCSc1nc(O)c(-c2ccccc2)c(=O)n1-c1ccccc1`, the “activity, negative = less viability” value was inactive: 11.3%.
With `CC(=O)Nc1ccc(C(=O)OCC(=O)NCc2ccccc2)cc1` the Potency was inconclusive [cytotoxic, single point].
In the case of `Cc1cc(-c2csc(NC(=O)c3ccc(C#N)cc3)n2)c(C)n1Cc1ccco1`, the “activity, negative = less viability” value is reported as inactive: 5.52%.
In the case of `CCOc1ccc2nc(NC(=O)C3(C)CC3(Br)Br)sc2c1` (configuration not stated), the “activity, negative = less viability” value is reported as inactive: 0.657%.
In the case of `O=C(CCNC(=O)c1ccco1)Nc1cccc(C(F)(F)F)c1`, the “activity, negative = less viability” value is reported as inactive: 24%.
In the case of `COCCN(Cc1cn[nH]c1-c1ccc2cc(OC)ccc2c1)C(C)C`, the “activity, negative = less viability” value is reported as inactive: -1.9%.
For `CCc1nc2sccc2c(=O)[nH]1`, the “activity, negative = less viability” value was inactive: 20%.
With `C#Cc1ccc(NC(=O)C2(C)CCN2C(=O)Cc2ccc(C(C)C)cc2)cc1` (configuration not stated) the Potency was inconclusive [cytotoxic, partial curve].
In the case of `CCOC(=O)CN1C(=O)S/C(=C/c2cc(C)n(C)c2C)C1=O`, the activity, negative = less viability is reported as inconclusive: 31.1%.
For `Cc1ccc(C)c(S(=O)(=O)N2CCCCC2CCNC(=O)C(=O)NCc2ccccn2)c1` (configuration not stated), the “activity, negative = less viability” value was inactive: 8.65%.
For `C[C@H](CCC(=O)OCc1cn(CC(=O)c2ccc(O)cc2)nn1)C1CC[C@H]2[C@@H]3CC[C@@H]4C[C@H](O)CC[C@]4(C)[C@H]3C[C@H](O)[C@]12C` (some centres not stated), the Potency was inconclusive [cytotoxic, single point].
In the case of `O=C(c1c(F)cccc1F)N1CCCC(c2nc(-c3ccc(F)cc3)no2)C1` (configuration not stated), the “activity, negative = less viability” value is reported as inactive: -22.7%.
With `CC(Oc1ccccc1)C(=O)N=C1SC2CS(=O)(=O)CC2N1Cc1ccccc1` (configuration not stated) the “activity, negative = less viability” value was inactive: -10.7%.
With `COc1ccccc1/C=C/c1nc(C#N)c(N(C)C)o1` the “activity, negative = less viability” value was inactive: 4.86%.
In the case of `O=C(CCl)N(c1ccccc1)c1c[nH]c2ccccc12`, the Potency is reported as inconclusive [cytotoxic, partial curve].
With `CC1COC(Cn2c3ccccc3c3ccccc32)O1` (configuration not stated) the Potency was inconclusive [cytotoxic, single point].
With `Cc1cc(OCc2nc(N)nc(N)c2-c2ccc(Cl)c(Cl)c2)ccc1[N+](=O)[O-]` the Potency was inconclusive [cytotoxic, full curve].
In the case of `Cc1cccc(N=Nc2ccc(O)c3ncccc23)c1`, the Potency is reported as inconclusive [cytotoxic, full curve].
In the case of `O=C(NCCc1cccc(Cl)c1)c1ccc(OC2CCN(Cc3ccccn3)CC2)cc1`, the Potency is reported as inconclusive [cytotoxic, single point].
In the case of `CCC(C)(C)c1ccc(Oc2ccc(N)cc2)cc1`, the Potency is reported as active: 16.4 µM.
With `O/N=C/c1ccccc1OCc1ccccc1Cl` the Potency was inconclusive [cytotoxic, single point].
With `CCn1c(CNc2ccc(Cl)cc2)nnc1SCc1ccc(Cl)cc1` the Potency was inconclusive [cytotoxic, single point].
With `CC(C)Cn1[nH]c2c3c(ccc2c1=O)C(=O)c1ccccc1C3=O` the Potency was inconclusive [cytotoxic, partial curve].
For `Cc1ccc(S(=O)(=O)NCc2c(Cl)cccc2Oc2ccccc2)cc1`, the Potency was inconclusive [cytotoxic, single point].
For `COc1ccc(-n2cnnc2SCC(=O)c2cc(C)n(Cc3cccs3)c2C)cc1`, the “activity, negative = less viability” value was inactive: -4.48%.
In the case of `CNCc1c(OCc2ccccc2F)ccc2ccccc12`, the Potency is reported as active: 18.4 µM.
